From PubChem BioAssay (NCATS)
Inconclusive means that the source gave no clear call. Such entries were picked first, then a sample of the others. For part of these data: A potency beside an inconclusive call is a rough fit, not a confirmed value. Active and inactive are the calls of the source. Calls come from the whole dose curve; as a rule, active = well fitted curve in the direction sought with a large enough effect; inconclusive = small, poorly fitted or top-dose-only effect, or another doubt; inactive = no such curve, though single readings can be large; an effect the other way counts as inactive or inconclusive.

Tests used:
[1] = OV-KATE Cancer Cell Toxicity qHTS against the NCATS CANVASS Library (AID 1347345)
Method in brief: (§1)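 Cells were seeded at 1000 per well, allowed 4 h at 37 degrees C/5% CO2, then pin-treated with an 11-point compound series. After 72 h, viability was read as CellTiter-Glo luminescence following 15min at room temperature.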

[2] = HPAF-II Cancer Cell Toxicity qHTS against the NCATS CANVASS Library (AID 1347346); note: nearly all actives have a fitted effect of over 55% in size
Method in brief: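 First, HPAF-II cells are plated (1000 cells/well) and held 4 h at 37 degrees C. Next, compounds are pin-transferred as an 11-point series. After 72 h, CellTiter-Glo is added and luminescence measured.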

[3] = UWB1.289 Cancer Cell Toxicity qHTS against the NCATS CANVASS Library (AID 1347347); note: nearly all actives have a fitted effect of over 60% in size
Method in brief: as §1

[4] = Panc-1005 Cancer Cell Toxicity qHTS against the NCATS CANVASS Library (AID 1347349); note: nearly all actives have a fitted effect of over 60% in size
Method in brief: as §1

[5] = U-118MG Cancer Cell Toxicity qHTS against the NCATS CANVASS Library (AID 1347351)
Method in brief: as §1

[6] = UWB1.289-WTBRCA1 Cancer Cell Toxicity qHTS against the NCATS CANVASS Library (AID 1347354)
Method in brief: (§2)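 First, 1000 cells go into each well and rest for 4 hours. Next, an 11-point dilution range is pinned in. Plates then incubate 72 hours before CellTiter-Glo addition and luminescence reading.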

[7] = HEK-293 Cancer Cell Toxicity qHTS against the NCATS CANVASS Library (AID 1347355); note: nearly all actives have a fitted effect of over 65% in size
Method in brief: as §2

[8] = KB-3-1 Cancer Cell Toxicity qHTS against the NCATS CANVASS Library (AID 1347366); note: nearly all actives have a fitted effect of over 75% in size
Method in brief: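 Luminescence from CellTiter-Glo (10 min, room temperature) measured KB-3-1 viability after 72 hr compound exposure at 37C. Cells were seeded at 500/well and tested in an 11-point series.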

[9] = qHTS for ATAD5 Antagonist screened against the NCATS CANVASS Library (AID 1347370); note: nearly all actives have a fitted effect of over 65% in size
Method in brief: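 Compounds (11-point) co-dosed with 10 µM 5-FUrd for 16 h at 37 °C onto HEK293T-ATAD5 luciferase reporter cells. Viability measured by CellTiter-Fluor fluorescence, then ATAD5 reporter signal by luminescence.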

[10] = J3T Cancer Cell Toxicity qHTS against the NCATS CANVASS Library (AID 1347371)
Method in brief: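 Luminescence from CellTiterGlo, reporting cellular ATP, serves as the viability measure after 72 hr compound treatment of J3T canine glioma cells seeded at 500 cells/well.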

[11] = qHTS for Inflammasome Signaling Inhibitors: IL-1-beta AlphaLISA screen against the NCATS CANVASS Library (AID 1347379);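 note: human THP-1 cells primed with LPS then triggered with ATP; secreted IL-1B measured as AlphaLISA emission at 615 nm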
Method in brief: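 Secreted IL-1B from human THP-1 cells quantified by AlphaLISA 16 hr after compound addition (final up to 57.5 uM). A 1 hr compound pretreatment preceded inflammasome activation with 250 ng/mL LPS plus 1.25 mM ATP (final).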

[12] = qHTS for Antimalaria activity screened against the NCATS CANVASS Library (AID 1347380); note: nearly all actives have a fitted effect of over 40% in size
Method in brief: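 Compounds are titrated over 11 concentrations onto Dd2 parasite cultures (0.3% parasitemia, 2.5% hematocrit). Growth over 72 h at 37C in low oxygen is measured as SYBR Green DNA fluorescence after lysis.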

[13] = Secretion counterscreen for inhibitors of the SERCaMP assay screened against the NCATS CANVASS Library (AID 1347390); details: SH-SY5Y constitutive GLuc secretion, luminescence, 20 h; activity change, negative = inhibition: at 76.6 µM (top of the series);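 note: light from luciferase secreted into medium read as a measure of general secretion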
Method in brief: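 SH-SY5Y-GLuc STOP cells; 4 h attach; cpds 0.001 - 77 uM (qHTS, 11 pts), 20 h 37C/5% CO2; coelenterazine in glow buffer; luminescence, 5 s exposure.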

[14] = qHTS for inhibitors of ER calcium dysfunction: SERCaMP assay screened against the NCATS CANVASS Library (AID 1347393); details: SH-SY5Y GLuc-SERCaMP (Gaussia luciferase released on ER calcium loss) secretion, thapsigargin, luminescence; activity change, negative = inhibition: at 76.6 µM (top of the series) unless noted; note: nearly all actives have a fitted effect of over 40% in size
Method in brief: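 Thapsigargin-induced ER calcium depletion drives GLuc-SERCaMP secretion from SH-SY5Y cells; compounds given 16 h beforehand were scored by lowered coelenterazine luminescence after 4 h challenge.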

[15] = Vero-766 cells viability qHTS against the NCATS CANVASS Library: Counterscreen for Zika virus inhibition assay (AID 1347394); details: Vero 766 viability, CellTiter-Glo luminescence, 72 h; activity change, negative = cytotoxic: at 46.1 µM (top of the series); note: nearly all actives have a fitted effect of over 60% in size
Method in brief: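 Vero 766, no virus; 1000 cells/well; o/n attach; cpd 11-pt; 72 h, 37C, 5% CO2; CTG luminescence; cell-free media wells = 100% inhibition.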

[16] = Tertiary RLuc qRT-PCR qHTS assay for Zika virus inhibitors (AID 1347169); note: nearly all actives have a fitted effect of over 55% in size
Method in brief: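 Vero, 1,000 cells/well, o/n 37 C; cpd pinned in DMSO; ZIKV-RLuc Cambodian, MOI 1-2, 48-72 h 37 C; live-cell RLuc substrate, lum read at 1-1.5 h.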

[17] = OV-SAHO Cancer Cell Toxicity qHTS against the NCATS CANVASS Library (AID 1347348); details: OV-SAHO viability, CellTiter-Glo luminescence, 72 h; series mostly up to 38.3 µM; note: nearly all actives have a fitted effect of over 55% in size
Method in brief: as §1

[18] = SW1088 Cancer Cell Toxicity qHTS against the NCATS CANVASS Library (AID 1347350); note: nearly all actives have a fitted effect of over 75% in size
Method in brief: as §1

[19] = HPAF-II 24hr Apoptosis Induction qHTS against the NCATS CANVASS Library (AID 1347356)
Method in brief: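 Cells seeded at 500 per well, then compounds pin-transferred in an 11-point concentration series. After 24 hours at 37 degrees C, Caspase-Glo 3/7 was added and luminescence measured following 15 min at room temperature.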

[20] = HEK293 18hr Apoptosis Induction qHTS against the NCATS CANVASS Library (AID 1347357)
Method in brief: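 Cells seeded at 500/well in DMEM + 10% FBS. Compounds pinned, 11 concentrations. 18 h, 37 degrees C/5% CO2. Caspase-Glo 3/7 added, 15 min RT dark, luminescence read.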

[21] = HPAF-II 12hr Apoptosis Induction qHTS against the NCATS CANVASS Library (AID 1347358)
Method in brief: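 Cells plated at 500 per well are dosed with compound and incubated 12 hours at 37 degrees C. Caspase-Glo 3/7 reagent is added and, after 15 min at room temperature, luminescence proportional to caspase activity is measured.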

[22] = HEK293 24hr Apoptosis Induction qHTS against the NCATS CANVASS Library (AID 1347359)
Method in brief: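 Caspase-3/7 activation measured as luminescence from the DEVD-based Caspase-Glo reagent, 15 min at room temperature, following 24-hour compound treatment of HEK293 cells.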

[23] = HPAF-II 18hr Apoptosis Induction qHTS against the NCATS CANVASS Library (AID 1347360)
Method in brief: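 Seed HPAF-II cells at 500/well in DMEM + 10% FBS, pin-transfer compounds, incubate 18 hours at 37 degrees C/5% CO2, add Caspase-Glo 3/7 reagent, wait 15 min, read luminescence.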

[24] = tested on: NAD(P)H diaphorase (Clostridium kluyveri); assay: Diaphorse counterscreen qHTS: Assay Interference Panel against the NCATS CANVASS Library (AID 1347362)
Method in brief: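 Counterscreen for coupling-enzyme interference: resorufin fluorescence from resazurin/NADH turnover, read after 5 min at room temperature. Compounds were tested over an 11-point series after 15 min dark preincubation with diaphorase in PBS-Tween.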

[25] = KB-8-5-11 Cancer Cell Toxicity qHTS against the NCATS CANVASS Library (AID 1347364); details: activity change, negative = toxicity: at 46.1 µM (top of the series); note: nearly all actives have a fitted effect of over 75% in size
Method in brief: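 Terse: KB-8-5-11, 500 cells/well, 72 hr, 37C/5% CO2, 11-pt titration, CellTiter-Glo readout; confirmatory runs ± 1uM tariquidar in medium.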

[26] = SDT Cancer Cell Toxicity qHTS against the NCATS CANVASS Library (AID 1347365); note: nearly all actives have a fitted effect of over 60% in size
Method in brief: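 Cytotoxicity is measured from cellular ATP: compounds in an 11-point concentration series are pinned onto SDT cells, incubated 72 hr at 37C, then CellTiterGlo is added and luminescence read.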

[27] = G06 Cancer Cell Toxicity qHTS against the NCATS CANVASS Library (AID 1347368); note: nearly all actives have a fitted effect of over 60% in size
Method in brief: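 Cells were plated at 500 per well, then compounds were added over an 11-point range. After 72 hr at 37C, CellTiterGlo was added and luminescence measured as ATP content.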

[28] = target: Nuclear receptor subfamily 1 group I member 3 (Homo sapiens) (UniProt Q14994); assay: qHTS for Constitutive Androstane Receptor (CAR) Antagonist screened against the NCATS CANVASS Library (AID 1347372)
Chain of UniProt Q14994 (Q14994 whole entry, looked up): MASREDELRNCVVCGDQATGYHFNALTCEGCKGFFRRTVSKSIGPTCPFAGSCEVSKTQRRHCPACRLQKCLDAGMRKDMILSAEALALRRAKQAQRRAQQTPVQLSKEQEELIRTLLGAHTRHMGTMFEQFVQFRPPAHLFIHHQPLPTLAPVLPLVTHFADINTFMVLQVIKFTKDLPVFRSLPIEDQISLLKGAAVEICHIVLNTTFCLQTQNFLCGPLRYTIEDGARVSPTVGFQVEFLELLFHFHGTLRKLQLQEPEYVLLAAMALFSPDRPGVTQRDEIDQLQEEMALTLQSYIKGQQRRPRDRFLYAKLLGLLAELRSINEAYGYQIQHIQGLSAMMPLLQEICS
Method in brief: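 Antagonist mode: compound added alongside 50 nM CITCO to HepG2-hCAR-CYP2B6 reporter cells, 24hr at 37C. Viability by CellTiter-Fluor fluorescence, then CAR-driven luciferase by ONE-Glo luminescence.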

[29] = qHTS for Hypoxia signaling pathway (HIF-1) agonists against the NCATS CANVASS Library (AID 1347375)
Method in brief: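 Cells plated and rested 5 h, compounds pinned in DMSO across 11 concentrations, incubated 17 h at 37C, loaded with CCF4-AM for 2 h, fluorescence read at 460 and 530 nm, then CellTiter-Glo luminescence measured for viability and normalization.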

[30] = DH5-alpha competent E. coli microbial cell viability qHTS against the NCATS CANVASS Library (AID 1347377); details: viability signal change, negative = cytotoxic: at 46.1 µM (top of the series)
Method in brief: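 Bacteria were dispensed at 0.2 OD, then compounds were pin-transferred. Plates were incubated overnight at 37C, after which BacTiter-Glo was added and luminescence measured 20 min later.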

[31] = qHTS for H2AX Agonists against the NCATS CANVASS Library (AID 1347378);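 note: phospho-H2AX S139 level in CHO-K1 lysates by TR-FRET emission ratio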
Method in brief: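 CHO-K1, 1000 cells/well, o/n 37C; cpd several conc, 3 hr 37C, 0.76% DMSO; lyse 30 min RT; cryptate anti-pH2AX(S139) + d2 anti-H2AX, 24 hr RT; HTRF 665/620.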

[32] = Cytotoxicity qHTS for assessment of Hepg2 cells membrane integrity screened against the NCATS CANVASS Library (AID 1347387)
Method in brief: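 Cells were seeded at 2000 per well and left overnight to attach. Compounds were pin-transferred to give 0.59 nM - 46 uM in an 11-point series and incubated 5 hr at 37C. CytoTox-ONE reagent was added and, after 10 min at room temperature, fluorescence (ex 560, em 590 nm) was read.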

[33] = qHTS for Activators of p53 Stress Response Pathway screened against the NCATS CANVASS Library (AID 1347388)
Method in brief: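 Beta-lactamase reporter driven by p53 response elements in HCT-116 cells, read as the 460 nm/530 nm emission ratio after CCF4 loading, following 16 h of exposure to an 11-point series. Cell viability was measured in the same wells by CellTiter-Glo luminescence.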

[34] = qHTS for activators of dead-cell proteases activity screened against the NCATS CANVASS Library (AID 1347392);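 note: luminescence from protease leaking out of membrane-damaged cells cleaving impermeant substrate; rising signal means more cytotoxicity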
Method in brief: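 Luminescent dead-cell protease readout (AAF-aminoluciferin, 15 min, room temperature) after 5 h compound treatment of HepG2 cells (2000/well, pre-attached 18 h). Eleven concentrations.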

[35] = qHTS for inhibitors of Wild type Zika virus screened against the NCATS CANVASS Library (AID 1347396)
Method in brief: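 Vero 766 cells, 1000/well, o/n attach; cpds pin-transferred (11-pt qHTS); WT Zika added; 72 h, 37C, 5% CO2; CellTiter Glo lumi. Uninfected + vehicle = 100% inhibition.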

Measured: Potency
Potency is the fitted concentration of half-maximal effect; tags give direction and shape of the fitted curve.

CC(C)=CC[C@H]1C[C@@]2(CC=C(C)C)C(=O)[C@](CC=C(C)C)(C(=O)C(C(=O)c3ccccc3)=C2O)C1(C)C
active: [2] 6.68 µM | [3] 8.38 µM | [4] 13.3 µM | [6] 11.8 µM | [7] 23.5 µM | [14] 30.5 µM
inactive: [13]
inconclusive: [1] 29.8 µM [cytotoxic, single point] | [5] 18.8 µM [cytotoxic, partial curve] | [8] 26.4 µM [cytotoxic, single point] | [9] 29.5 µM [inhibitor, single point] | [10] 23.5 µM [cytotoxic, single point] | [11] 43.2 µM [inhibitor, partial curve, poor fit] | [12] 16.7 µM [cytotoxic, single point] | [15] 11.7 µM [cytotoxic, partial curve]

CCCc1nn2c(=O)cc(COC(=O)c3ccccc3NC(=O)c3ccc(Cl)cc3)nc2s1
inconclusive: [16] 3.16 µM [inhibitor, single point]

C=CC(=C)CC[C@]1(C)[C@H]2C[C@H](OC(=O)C(C)CC)C=C3[C@H](OC(C)=O)O[C@H](OC(C)=O)[C@@]32[C@H](OC)C[C@@H]1C (some centres not stated)
active: [1] 2.17 µM | [17] 2.73 µM | [4] 2.17 µM | [18] 0.769 µM | [5] 3.43 µM | [6] 5.45 µM | [20] 13.6 µM | [22] 9.59 µM | [25] 7.62 µM | [26] 8.55 µM | [27] 6.05 µM | [9] 10.8 µM | [28] 12.1 µM | [29] 19.3 µM | [31] 19.9 µM | [13] 3.96 µM | [34] 60.6 µM | [15] 6.8 µM | [35] 6.76 µM
inconclusive: [19] 4.81 µM [activator, full curve] | [21] 5.4 µM [activator, partial curve] | [23] 7.62 µM [activator, single point] | [24] 44.4 µM [inhibitor, partial curve] | [30] 48.1 µM [rising, partial curve, poor fit] | [32] 48.1 µM [rising, partial curve] | [33] 6.06 µM [activator, full curve]
